{"source": "PubChem BioAssay AID686971", "about": "(National Center for Advancing Translational Sciences (NCATS), 2013)", "note": "Screen size: about 360,000 compounds; about 7,500 (2.1%) were called active. This list was built around the results that the source calls inconclusive (neither active nor inactive); the mix of calls is not that of the screen. Calls follow the shape of the dose curve; as a rule, active = well fitted cell-killing curve with a large enough effect; inconclusive = small, poorly fitted or top-dose-only effect, or effect the other way, or another doubt; inactive = no such curve, though single readings can be large or run the other way. No potency is given beside an inconclusive call; the fits are too rough. Potency is read from the fitted curve at half-maximal effect; tags tell the direction and shape of the fitted curve."}
{"test": "qHTS for induction of synthetic lethality in tumor cells producing 2HG: qHTS for the HT-1080-IDH1KD cell line;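 as to activity, negative = toxicity: 0% = DMSO wells and -100% = cell-free medium wells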", "conditions": "HT-1080 IDH1 knockdown viability, ATP luminescence, 48 h; activity, negative = toxicity: at 46.1 µM (top of the series) unless noted", "how_it_was_run": "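IDH1KD HT-1080 cells, 750/well, RPMI + 5% FBS; compound pinned after 2 h settling; 48 h, 37 °C; CellTiter-Glo luminescence; % activity normalised to DMSO and no-cell wells; curves fitted, classed by r2 and efficacy.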"}
{"smiles": "COc1ccc(C(=O)N2CCN(c3ccccn3)CC2)cc1", "Potency": "inactive"}
{"smiles": "COc1cc2c(cc1OC)CN(C(=O)CCOc1ccccc1C)CC2", "Potency": "inconclusive [cytotoxic, single point]"}
{"smiles": "Oc1ccc(C=NNC(=S)Nc2ccc(F)cc2)c(O)c1", "Potency": "active: 18.4 µM"}
{"smiles": "CC(C)Sc1nsc2nc(=O)c(/C=C3\\C=Nc4ccccc43)c(N)n12", "Potency": "inactive"}
{"smiles": "CC(C)(C)c1cc(NS(=O)(=O)c2ccc(Br)s2)no1", "Potency": "inactive"}
{"smiles": "C=CCn1c(COc2ccc(F)cc2)nnc1SC(C)C(=O)NCC1CCCO1", "note": "(configuration not stated)", "Potency": "inactive"}
{"smiles": "CC(C)(C)c1csc(N/N=C/c2ccc(O)cc2)n1", "Potency": "inactive"}
{"smiles": "O=C(Nc1ccc2nc(-c3ccc(Br)o3)[nH]c2c1)c1cccs1", "activity, negative = toxicity": "inconclusive: 6.57%"}
{"smiles": "Cc1nn(-c2ccccc2)c(C)c1-c1cc(C(=O)N/N=C/c2ccc(O)cc2)[nH]n1", "Potency": "inconclusive [cytotoxic, partial curve]"}
{"smiles": "CCCCCCn1c(N2CCCC2)nc2c1c(=O)n(C)c(=O)n2C", "Potency": "inactive"}
{"smiles": "COc1cc([N+](=O)[O-])cc(/C=N\\NC(=O)C2COc3ccccc3O2)c1O", "note": "(configuration not stated)", "Potency": "active: 18.4 µM"}
{"smiles": "CC(C)(C)c1ccc(/C=C(\\C#N)C(=O)NC2CC2)cc1", "Potency": "inconclusive [cytotoxic, single point]"}
{"smiles": "COc1cc(OC)c(N(C)S(=O)(=O)c2cccc(C(=O)OCC(=O)c3c[nH]c4ccccc34)c2)cc1Cl", "Potency": "inconclusive [cytotoxic, single point]"}
{"smiles": "CCN(CC)CCN(C(=O)c1cc2ccccc2cc1OC)c1nc2ccc(F)cc2s1", "Potency": "inconclusive [cytotoxic, single point]"}
{"smiles": "COc1cc(NC(=O)CSc2ccc(-c3ccccn3)nn2)cc(OC)c1", "Potency": "inconclusive [cytotoxic, single point]"}
{"smiles": "c1ccc2c(-c3nc4ccccc4[nH]3)cccc2c1", "Potency": "active: 18.4 µM"}
{"smiles": "Cc1ccc(Cc2c(-c3ccco3)nc3c(C)cc(Br)cn23)cc1", "Potency": "active: 14.6 µM"}
{"smiles": "FC(F)(F)c1ccc(NC(=S)NCc2ccccc2)cc1", "Potency": "inconclusive [cytotoxic, single point]"}
{"smiles": "CN1CN(C)c2ccc([N+](=O)[O-])c3cccc1c23", "Potency": "inactive"}
{"smiles": "CCOC(=O)C1=C[C@@H](C(C)(C)C)N(S(=O)(=O)c2ccc(C)cc2)[C@H]1c1ccc(OC)cc1", "Potency": "inactive"}
{"smiles": "Oc1cccc(C=Nc2cccc3ccccc23)c1O", "Potency": "active: 23.1 µM"}
{"smiles": "NC(=O)CC(NSc1ccccc1[N+](=O)[O-])C(=O)O", "note": "(configuration not stated)", "Potency": "inactive"}
{"smiles": "Cc1ccc(Nc2c(-c3ccccn3)nc3cc(C)ccn23)cc1", "Potency": "active: 5.8 µM"}
{"smiles": "CN(Cc1cnc2nc(N)nc(N)c2n1)c1ccc(C(=O)NC(CCC(=O)O)C(=O)O)c2ccccc12", "note": "(configuration not stated)", "Potency": "active: 0.0058 µM"}
{"smiles": "Cc1c(Cl)cccc1NC(=S)NCc1ccc(Cl)cc1", "Potency": "inconclusive [cytotoxic, single point]"}
{"smiles": "COC(=O)c1c(NC(=O)CC2SC(N)=NC2=O)sc(C)c1C", "note": "(configuration not stated)", "Potency": "inactive"}
{"smiles": "COc1ccc(CCNC(=O)CSc2cn(Cc3cccc(C)c3)c3ccccc23)cc1OC", "Potency": "inconclusive [cytotoxic, single point]"}
{"smiles": "O=C(Nc1ccc2c(c1)OCCO2)C(c1ccccc1F)n1c(=O)c(-c2cc3ccccc3[nH]2)nc2ccccc21", "note": "(configuration not stated)", "Potency": "inconclusive [cytotoxic, partial curve]"}
{"smiles": "Cc1cccc(-c2ccc3[nH]c4c(c3c2)CCN2C[C@@H]([C@H](C)O)[C@@H](N(C)C(=O)Nc3ccc(F)cc3)C[C@@H]42)c1", "Potency": "inconclusive [cytotoxic, single point]"}
{"smiles": "CCN1CCN(C(=O)C2CCN(Cc3cc(Cl)ccc3O)CC2)CC1", "Potency": "inactive"}
{"smiles": "CCC(=O)N1CCN(c2nc(-c3ccccc3)c3c(c2C#N)CCCC3)CC1", "Potency": "inconclusive [cytotoxic, single point]"}
{"smiles": "O=C(OCC(=O)c1c[nH]c2ccccc12)c1cc(Br)ccc1O", "Potency": "inconclusive [cytotoxic, partial curve]"}
{"smiles": "CCOc1ccc(/C=C/C2=Cc3c(sc(NC(=O)CSc4n[nH]c(N)n4)c3C#N)C(C)(C)C2)cc1", "Potency": "inconclusive [cytotoxic, single point]"}
{"smiles": "Cn1c(N)c(C(=O)Nc2cccc(Cl)c2)c(=O)n(C)c1=O", "Potency": "inconclusive [cytotoxic, single point]"}
{"smiles": "CCN(CC)CCn1c(=S)[nH]c2ccc(Cl)cc2c1=O", "Potency": "inconclusive [cytotoxic, partial curve, poor fit]"}
{"smiles": "Cc1cc2oc(=O)cc(CN(Cc3ccccc3)Cc3ccccc3)c2cc1Cl", "Potency": "inconclusive [cytotoxic, single point]"}
{"smiles": "COCCn1c(=NC(=O)c2ccc3c(c2)OCCO3)sc2cc(S(N)(=O)=O)ccc21", "Potency": "inactive"}
{"smiles": "OC(COc1ccccc1)CN1CCCC1", "note": "(configuration not stated)", "Potency": "inactive"}
{"smiles": "Cc1nnc(SCc2cc(=O)[nH]c(Nc3nc(C)c4cc(C)c(C)cc4n3)n2)s1", "Potency": "inactive"}
{"smiles": "CCC(C)(C)n1nnnc1CN1CCC(c2nc3ccc(C)cc3[nH]2)CC1", "Potency": "inconclusive [cytotoxic, partial curve]"}
{"smiles": "COc1ccccc1/C=C/C=N/NC(=O)c1cc(-c2ccco2)[nH]n1", "Potency": "inconclusive [cytotoxic, single point]"}
{"smiles": "O[C@H]1C[C@H](c2ccc(Cl)cc2)N(CC2CCCCC2)C[C@@H]1n1cc(C2CC2)nn1", "Potency": "inconclusive [cytotoxic, single point]"}
{"smiles": "Cc1ccccc1Nc1nc(N)nc(COC(=O)c2cccc(S(=O)(=O)NCc3ccccc3)c2)n1", "Potency": "inconclusive [cytotoxic, partial curve]"}
{"smiles": "CCOC(=O)c1c(C)[nH]c(C(=O)CN2CC(C)OC(C)C2)c1C", "note": "(configuration not stated)", "Potency": "inconclusive [cytotoxic, single point]"}
{"smiles": "CCOC(=O)N1CCN(C(=O)c2c[nH]c3ccc(S(=O)(=O)N(C)c4cccc(C)c4)cc3c2=O)CC1", "Potency": "inactive"}
{"smiles": "Cc1cc(NCc2ccccc2)nc(-c2ccccc2O)n1", "Potency": "inactive"}
{"smiles": "Cc1cc(C)c(C(=O)c2ccc(C(=O)N(C(C)C)C(C)C)cc2)c(C)c1", "Potency": "inconclusive [cytotoxic, single point]"}
